# PubChem BioAssay AID686979 (National Center for Advancing Translational Sciences (NCATS), 2013)
# In all, about 420,000 compounds went through this assay and about 50,000 (12%) were called active. Inconclusive results, whose numbers are uncertain, are shown with a selection of clear calls. The call rests on the fitted dose curve; in most records, active means well fitted inhibition curve with a large enough effect; inconclusive means small, poorly fitted or top-dose-only effect; inactive means flat fitted curve, though single readings scatter. Potencies of inconclusive entries are left out as doubtful fits.
# Assay: qHTS for Inhibitors of human tyrosyl-DNA phosphodiesterase 1 (TDP1): qHTS in cells in presence of CPT; further: nearly all actives have a fitted effect of over 55% in size
# Conditions: chicken DT40 Tdp1-/-;hTDP1 cells + 20 nM CPT, ATP luminescence, 48 h; activity change, negative = growth inhibition: at 46.2 µM (top of the series) unless noted
# Outline: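 Chicken DT40 Tdp1-/- cells complemented with human TDP1, 400 cells/well, exposed to compounds plus 20 nM camptothecin for at least 48 h at 37 C; viability read as ATP content by CellTiter-Glo luminescence.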
# On the % scale 0 is the no-effect control and ±100 the full control effect; potency means the concentration at half of the fitted maximal effect; tags describe the fitted curve by direction and shape.
SMILES,Potency,"activity change, negative = growth inhibition"
COc1ccc(C(=O)N2CCC(n3nccc3NC(=O)C3CCOC3)CC2)cc1 (stereo not given),inactive,–
CC(=O)Nc1ccc(-c2ccnc3c2CC(C(=O)NCc2cccc(Cl)c2)O3)cc1 (stereo not given),active: 3.66 µM,–
COc1cccc(N/C=C/C(=O)c2ccc(OC)c(OC)c2)c1,"inconclusive [inhibitor, single point]",–
Cc1c(C(=O)N2CCN(Cc3nccn3C)CC2)oc2c(F)cccc12,"inconclusive [inhibitor, single point]",–
CC(=O)c1cccc(NC(=O)C(C)OC(=O)c2ccc(S(C)(=O)=O)c([N+](=O)[O-])c2)c1 (stereo not given),active: 2.24 µM,–
CCN(CC)S(=O)(=O)c1ccc(N2CCCC2)c(NC(=O)CSCc2c(C)noc2C)c1,"inconclusive [inhibitor, single point]",–
COc1ccc(NC(=O)CN2C(=O)COc3ccc(S(=O)(=O)NC4CCCC4)cc32)cc1OC,inactive,–
COCc1cc(C)nc(OCC(=O)N/N=C/c2ccc(C)cc2)c1C#N,active: 11.6 µM,–
CCn1c(Cc2ccc(OC)cc2)nnc1SCC(=O)N1CCN(c2ccccc2)CC1,"inconclusive [inhibitor, partial curve, poor fit]",–
Cc1cccc(-n2c(O)c(C=Nc3ccc4c(c3)OCO4)c3ccccc3c2=O)n1,"inconclusive [inhibitor, single point]",–
CCN(CC)S(=O)(=O)c1cccc(-c2n[nH]c(=S)n2Cc2ccccc2)c1,inactive,–
Cc1ccccc1-c1nnc(SCC(=O)NC2CCS(=O)(=O)C2)n1C (stereo not given),inactive,–
CCOC(=O)c1cc2c(=O)n3ccccc3nc2n(CCOC)c1=NC(=O)c1c(-c2c(F)cccc2Cl)noc1C,"inconclusive [inhibitor, single point]",–
CCCCOc1ccc(NC(=S)Nc2cc(C)nc(SCCCC)n2)cc1,active: 5.8 µM,–
CSc1ccc(CCNC(=O)Cn2ncc3c([nH]c4ccccc43)c2=O)cc1,inactive,–
Cc1oc(-c2ccccc2F)nc1CS(=O)(=O)CC(=O)NCCCc1ccccc1,inactive,–
COCc1[nH]c(=S)c(C#N)cc1C(=O)OC,"inconclusive [inhibitor, single point]",–
Cc1ccc(-n2ncc3c(NC4CCCCC4)ncnc32)cc1C,"inconclusive [inhibitor, single point]",–
O=c1cc(-c2ccc(C(F)(F)F)cc2)oc2ccccc12,inactive,–
CC(=O)Oc1cc2c(cc1OC(C)=O)C(=O)CCCC2,"inconclusive [inhibitor, single point]",–
COc1ccc(N(C(=O)c2snc(C(N)=O)c2N)C(C(=O)NC2CCCC2)c2cc(OC)ccc2OC)c(OC)c1 (stereo not given),active: 23.1 µM,–
Cc1ccc(C2C(C#N)=C(N)SC(N)=C2C#N)c(C)c1,"inconclusive [inhibitor, single point]",–
O=C(CN1CCCC1)N1CCCc2c1c(=O)oc1ccc(OCc3ccccc3)cc21,"inconclusive [inhibitor, partial curve]",–
CC(C)(C)c1cc(C(=O)N/N=C/c2cc3c(cc2Br)OCO3)n[nH]1,"inconclusive [inhibitor, single point]",–

SMILES,Potency,"activity change, negative = growth inhibition"
CCn1c(CSCc2ccc(Cl)cc2)n[nH]c1=S,"inconclusive [inhibitor, single point]",–
Oc1ccc(/C=N/Nc2ccc(C(F)(F)F)cn2)cc1O,active: 2.91 µM,–
CCOC=C1C(=O)N(C(C)=O)c2cc(OC)c(OC)cc21,"inconclusive [inhibitor, single point]",–
CC(=O)OCC(=O)C1(O)CCC2C3CC(C)C4=CC(=O)C=CC4(C)C3(F)C(O)CC21C (stereo not given),inactive,–
COc1ccc(/C=C/C(=O)N2CCN(c3ccccn3)CC2)cc1OC,inactive,–
CCN(CC(=O)Nc1ccc(NC(C)=O)cc1)C(=O)C1(c2ccc(Cl)cc2)CCC1,inactive,–
CN(C)C(=O)c1ccc(N=Nc2c(O)c3ccccc3[nH]c2=O)cc1,active: 20.6 µM,–
Cc1nc2ccccc2cc1C(=O)N/N=C/c1ccccc1[N+](=O)[O-],"inconclusive [inhibitor, single point]",–
CC(C)C1S/C(=N/N=C/c2cccs2)NC1=O (stereo not given),inactive,–
Cc1nc(SCC(=O)Nc2cc(S(=O)(=O)N3CCOCC3)ccc2Cl)nc(C)c1C,"inconclusive [inhibitor, partial curve]",–
CC(C)c1c(O)ccc2c1CCC1[C@@](C)(C=O)CCC[C@@]21C (stereo not given in full),"inconclusive [inhibitor, single point]",–
CCSc1nnc(-c2ccccc2N=Cc2c(C)[nH]n(-c3ccccc3)c2=O)c(=O)[nH]1,–,inconclusive: -31.1% [inhibitor]
Cc1cccc(C2=NN(c3ccccc3)[C@@H](C(=O)N3CCOC3=O)[C@@H]2C)c1,"inconclusive [inhibitor, partial curve, poor fit]",–
COc1ccc(O)c(/C=N/N=C2/C(=O)Nc3ccccc32)c1,"inconclusive [inhibitor, partial curve, poor fit]",–
COc1ccccc1C(=O)NC(=O)Nc1ccc(-c2cc(C(F)(F)F)nn2-c2ccccc2)cc1,active: 5.8 µM,–
CNC(=O)c1cc2c(-c3ccccc3)nn(C)c2s1,"inconclusive [inhibitor, single point]",–
O=C(C1CCCN(c2ncnc3c2nc2n3CCCCC2)C1)N1CCN(c2ccc(F)cc2)CC1 (stereo not given),"inconclusive [inhibitor, single point]",–
CC(=O)c1sc(NS(=O)(=O)c2ccc(C)cc2)nc1-c1ccccc1,inactive,–
COc1cccc(C2CC(c3ccc(Cl)cc3)n3nc(N)nc3N2)c1 (stereo not given),"inconclusive [inhibitor, single point]",–
COc1ccc(N2CCN(C(=O)c3[nH]c4ccc(OC)cc4c3C)CC2)cc1,inactive,–
COc1ccccc1N(Cc1ccccc1)S(=O)(=O)c1cccc(C(=O)Nc2ccccn2)c1,–,inconclusive: -30.7% [inhibitor]
CCc1ccc(N(CC)C(=O)c2cn(C)c(=O)c3cc(OC)c(OC)cc23)cc1,"inconclusive [inhibitor, single point]",–
Cc1ccc(C(=O)Nc2nnc(COc3ccccc3)s2)cc1,inactive,–
C=CCn1c(C)cc(-c2csc(NC(=O)C3CCN(c4ncnc5sc(C)c(C)c45)CC3)n2)c1C,"inconclusive [inhibitor, single point]",–

SMILES,Potency,"activity change, negative = growth inhibition"
CCOc1ccc2c(c1)NC(c1ccc(OCC)c(OCC)c1)=NC(c1ccc(F)cc1)=N2,"inconclusive [inhibitor, single point]",–
Cc1ccc(Cl)cc1NS(=O)(=O)c1ccc(-n2cccn2)cc1,"inconclusive [inhibitor, single point]",–
COc1ccccc1Nc1nc(-c2sc(NC(=O)c3ccccc3)nc2C)cs1,–,inconclusive: -34.8% [inhibitor]
COc1cc(C(=O)NC(=S)NNC(=O)c2cnccn2)cc(OC)c1OC,"inconclusive [inhibitor, single point]",–
CC1(C)CC(=O)C=C(c2ccc(Oc3ccccc3)cc2)C1=O,"inconclusive [inhibitor, single point]",–
CCc1ccc(C(=O)c2cn(CC(=O)Nc3ccc4c(c3)OCO4)c3ccc(Cl)cc3c2=O)cc1,"inconclusive [inhibitor, single point]",–
O=C1COc2ccc(-c3csc(NCC4CCCO4)n3)cc2N1 (stereo not given),"inconclusive [inhibitor, single point]",–
CCNc1ncc2nc(C)c(=O)n(Cc3cccc(OC)c3)c2n1,inactive,–
Cn1ncc(Cl)c1C(=O)NC(=S)Nc1sc2c(c1C#N)CCCCC2,active: 20.6 µM,–
COC(=O)c1c(NC(=O)C2COc3ccccc3O2)sc2c1CCN(C(C)=O)C2 (stereo not given),active: 11.6 µM,–
COc1ccc(C2=CC(=O)CC(C)(C)C2)cc1,"inconclusive [inhibitor, partial curve]",–
Cc1cccc(C)c1Nc1nnc(SCC(=O)Nc2ncc(C(F)(F)F)cc2Cl)s1,active: 2.06 µM,–
CN1C(=O)/C(=C/c2ccccc2F)Sc2ccc(C(=O)N3CCCC3)cc21,"inconclusive [inhibitor, single point]",–
CCN(CC)c1ccc(NC(=O)C2CCN(S(=O)(=O)c3c(C)noc3/C=C/c3ccccc3F)CC2)c(C)c1,active: 20.6 µM,–
CC1=C(C(=O)N2CCOCC2)CC(CC(=O)NCc2cccc3ccccc23)C(=O)N1Cc1ccc(C(C)(C)C)cc1 (stereo not given),"inconclusive [inhibitor, single point]",–
Cc1ccc(S(=O)(=O)N2CCCc3cc(NC(=O)c4ccc(Cl)cc4)ccc32)cc1,"inconclusive [inhibitor, single point]",–
CCOc1ccc(NC(=O)CSc2n[nH]c(=O)n2-c2ccccc2)cc1,inactive,–
CC1(c2ccccc2)NC(=O)N(CC(=O)N2CCN(S(=O)(=O)c3c(F)cccc3F)CC2)C1=O (stereo not given),inactive,–
O=C(COC(=O)c1ccc(F)cc1)NCc1ccc(F)cc1,inactive,–
CCOc1ccc(CCNC(=O)c2c3c(nc4ccccc24)C(=O)N(C2CCCCC2)C3)cc1,active: 16.4 µM,–
O=C(N[C@@H]1CC[C@@H](CCn2cc(-c3ccccc3)nn2)O[C@@H]1CO)c1cnccn1,inactive,–
C=CCN1CCN(C(c2ccc(Cl)cc2)c2nnnn2CCc2ccc(OC)c(OC)c2)CC1 (stereo not given),"inconclusive [inhibitor, single point]",–
